Assay [1] addresses phosphorylated histone H2AX (γ-H2AX, p-S139) (human (endogenous in M059K)) (UniProt P16104). Nature of the assay: proximity ligation; in situ PLA on fixed M059K cells grown on cover slips, endogenous proteins, two primary antibodies for each pair; cells untreated or with 0.5 μg/ml NCS for 1 hour, with scramble siRNA or siRNA against CK2α/α'; signals per cell counted with BlobFinder.

Protein sequences, listed by entry. Tags and fused reporters are not part of them. Lines headed by an entry give the natural chain unless they say otherwise; changes in a name come on top. Chains listed by the source or under a name are the forms on record and can include a tag or linker. Residues count along the entry.
UniProt P68400: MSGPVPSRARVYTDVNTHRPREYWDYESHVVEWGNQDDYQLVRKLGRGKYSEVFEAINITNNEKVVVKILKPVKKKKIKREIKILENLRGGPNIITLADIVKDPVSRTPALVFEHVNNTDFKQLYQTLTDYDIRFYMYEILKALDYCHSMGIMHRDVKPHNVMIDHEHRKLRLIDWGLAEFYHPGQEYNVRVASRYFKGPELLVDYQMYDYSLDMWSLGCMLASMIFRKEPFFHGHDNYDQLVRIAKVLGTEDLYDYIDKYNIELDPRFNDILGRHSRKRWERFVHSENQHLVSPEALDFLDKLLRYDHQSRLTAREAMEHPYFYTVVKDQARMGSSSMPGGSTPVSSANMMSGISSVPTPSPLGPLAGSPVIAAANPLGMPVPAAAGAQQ
DNA-PKcs Fragment C (aa 2005-2555), Myc-tagged (human (cDNA from HCT116 cells)) (P78527, residues 2005-2555): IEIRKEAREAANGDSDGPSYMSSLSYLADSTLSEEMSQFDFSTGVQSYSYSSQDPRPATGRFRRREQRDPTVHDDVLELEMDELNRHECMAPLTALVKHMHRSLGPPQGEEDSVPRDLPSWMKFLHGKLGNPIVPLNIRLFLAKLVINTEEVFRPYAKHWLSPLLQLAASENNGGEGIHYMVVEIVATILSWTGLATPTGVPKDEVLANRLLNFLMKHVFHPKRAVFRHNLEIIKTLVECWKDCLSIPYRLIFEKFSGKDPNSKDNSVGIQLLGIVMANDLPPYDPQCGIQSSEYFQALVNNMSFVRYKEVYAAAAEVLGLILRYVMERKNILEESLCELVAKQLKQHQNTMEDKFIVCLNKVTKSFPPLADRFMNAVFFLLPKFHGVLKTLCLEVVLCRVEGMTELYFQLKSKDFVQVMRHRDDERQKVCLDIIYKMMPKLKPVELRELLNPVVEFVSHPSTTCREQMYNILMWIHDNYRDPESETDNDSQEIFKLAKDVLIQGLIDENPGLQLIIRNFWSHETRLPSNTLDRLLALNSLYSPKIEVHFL
DNA-PKcs Fragment D (aa 2768-3258), Myc-tagged (human (cDNA from HCT116 cells)) (P78527, residues 2768-3258): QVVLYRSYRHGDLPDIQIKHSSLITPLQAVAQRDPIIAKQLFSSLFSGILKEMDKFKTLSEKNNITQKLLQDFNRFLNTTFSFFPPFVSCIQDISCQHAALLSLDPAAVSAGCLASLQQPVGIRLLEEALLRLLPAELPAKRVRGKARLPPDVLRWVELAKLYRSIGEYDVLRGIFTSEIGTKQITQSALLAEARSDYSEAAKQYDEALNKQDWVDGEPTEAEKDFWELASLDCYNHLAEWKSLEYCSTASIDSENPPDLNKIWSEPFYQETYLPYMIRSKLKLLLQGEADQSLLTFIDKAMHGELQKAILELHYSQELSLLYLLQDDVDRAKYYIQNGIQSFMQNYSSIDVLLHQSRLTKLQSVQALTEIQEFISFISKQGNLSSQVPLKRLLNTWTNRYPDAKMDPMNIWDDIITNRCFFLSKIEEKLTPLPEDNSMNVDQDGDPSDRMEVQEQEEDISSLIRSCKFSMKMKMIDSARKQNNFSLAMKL

Assay [2] deals with protein kinase CK2 catalytic subunit α' (CK2α') (human (endogenous in M059K and HCT116)) (UniProt P19784). The description is as above.
Assay [3] has as its target protein kinase CK2 catalytic subunit α (CK2α), endogenous (human (endogenous in HCT116 and M059K)) (UniProt P68400). In words: co-IP; lysates of HCT116 and M059K cells precipitated with rabbit polyclonal anti-CK2α serum, blot for DNA-PKcs; cells untreated or treated with NCS.
The target in assay [4] is protein kinase CK2 catalytic subunit α' (CK2α') (human (endogenous in M059K and HCT116)) (UniProt P19784). The description is as above.
In assay [5] the target is DNA-PKcs Fragment E (aa 3414-4123), Myc-tagged (human (cDNA from HCT116 cells)) (UniProt P78527). In words: condition: 0.5 μg recombinant CK2α with 500 μg extract; co-IP; 500 μg whole extract of Cos-1 cells expressing a Myc-tagged DNA-PKcs fragment incubated with 0.5 μg purified human recombinant CK2α; precipitated with rabbit monoclonal anti-Myc, blot for CK2α and Myc; only the binder purified.

Assay [6] concerns the target DNA-PKcs Fragment D (aa 2768-3258), Myc-tagged (human (cDNA from HCT116 cells)) (UniProt P78527). In words: co-IP; 500 μg whole extract of Cos-1 cells expressing a Myc-tagged DNA-PKcs fragment incubated with 0.5 μg purified human recombinant CK2α; precipitated with rabbit monoclonal anti-Myc, blot for CK2α and Myc; only the binder purified.
In assay [7] the target is DNA-PKcs Fragment C (aa 2005-2555), Myc-tagged (human (cDNA from HCT116 cells)) (UniProt P78527). Described as above.

Results are given in words; binding and its absence hold for the method and conditions named. In cells and extracts the contact can be indirect. Some binding calls cover weakened binding; strength is not graded here.

For “protein kinase CK2 catalytic subunit α' (CK2α') (from UniProt P19784 1-350) (enzyme)”, the binding entry in assay [1] is given as “binds”.

For the substance “catalytic subunit of the DNA-dependent protein kinase (DNA-PKcs) (from UniProt P78527 1-4128) (enzyme)”, the binding result in assay [2], in assay [3] and in assay [4] was “binds” in each case.

Take “human recombinant CK2α (from UniProt P68400 1-391) (enzyme)”: the binding result in assay [5] is given as “no binding”; in assay [6], “binds”; in assay [7], “binds”.

The record behind these values is article PMC3316135.
